Laboratory results reported in the supplement of paper PMC11181314.
The other results are listed elsewhere or left out. Single values of this set are uncertain.

Test system: U2OS
Assay: Cell Painting induction (percent of morphological features significantly changed vs DMSO); higher = stronger morphological change
Details: 10 µM; 20 h; run: confirmation repeat
Procedure: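 Cell Painting assay in U2OS cells: compounds at 10 µM for 20 h, six dyes, 579 robust CellProfiler features as Z-scores vs DMSO median (MAD). Induction is the % of significantly changed features (active if ≥5%); relative cell count is in % of DMSO. The primary run holds DCM compounds preselected for induction ≥10%; the confirmation repeat defines active compounds (370 of 549). Replicate agreement is low, attributed to precipitation.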
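Note: stains mark DNA, RNA and nucleoli, ER, actin, Golgi, plasma membrane and mitochondria, read by high-content imaging, with DMSO controls at matching solvent concentration.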

| Compound | Cell Painting induction |
| --- | --- |
| COc1ccc(CCn2c(=O)[nH]c3cc(C(=O)N4CCN(c5ccccc5)CC4)ccc3c2=O)cc1OC | active: 21.2% |
| C=CCOc1cccc(C2c3c(oc4ccccc4c3=O)C(=O)N2c2ccccn2)c1 (stereo not given) | inactive: 2.1% |
| COc1ccc(N2C(=S)NC3c4cc(Cl)ccc4OC2(C)C3C(=O)N(C)C)cc1 (stereo not given) | active: 20.7% |
| Cc1nn(C(C)C(=O)NCCCN2CCCCC2C)c(=O)c2c1sc1ccccc12 (stereo not given) | active: 10.4% |
| CCOC(=O)C(C)Sc1nc(O)c2cnn(-c3ccc(F)cc3)c2n1 (stereo not given) | inactive: 1.6% |
| CCOc1cccc2cc(C(=O)NCc3ccc(F)cc3)c(=N)oc12 | active: 10.4% |
| COc1ccc(CNC(=O)c2cc3cc(OC)ccc3oc2=O)cc1 | active: 37% |
| O=C(Nc1ccc2nc3n(c(=O)c2c1)CCCCC3)C(=O)N1CCN(c2ccc(F)cc2)CC1 | inactive: 0.2% |
| Cc1nn2c(Nc3ccc(F)cc3)c3c(nc2c1-c1ccccc1)CCC3 | inactive: 1.7% |
| CCN(CC)c1ccc(NC(=O)CN2CCN(CC(=O)Nc3ccc(OC)cc3)CC2)cc1 | active: 28% |
| CCOc1cc2[nH]c(=S)n(Cc3ccc(C(=O)NCCOC)cc3)c(=O)c2cc1OCC | active: 20.7% |
| COc1ccc(-n2nc(C(=O)NCC(=O)N3CCN(c4ccccn4)CC3)c3ccccc3c2=O)cc1Cl | inactive: 0.7% |
| Cc1ccc(N2CCN(C(=O)C3CCN(S(=O)(=O)c4cccc5nsnc45)CC3)CC2C)cc1 (stereo not given) | inactive: 0% |
| COc1ccccc1-n1c(CNC(=O)c2ccco2)nnc1SCC(=O)Nc1nccs1 | active: 9.7% |
| COc1ccc(C(=O)NCC2(c3ccc(OC)c(OC)c3)CCCC2)c(OC)c1 | inactive: 2.2% |
| CCN(CCCNC(=O)CN1C(=O)COc2ccc(S(=O)(=O)N3CCC(C)CC3)cc21)Cc1ccccc1 | active: 39.7% |
| O=C(CN1C(=O)CSc2ccc(S(=O)(=O)N3CCCCCC3)cc21)NCCc1ccccc1 | active: 7.1% |
| COc1ccc(OC)c(CN2CCN(Cc3ccccc3C(F)(F)F)CC2)c1 | active: 18.5% |
| Cc1cc(C)cc(NC(=S)N(CCCN2CCN(C)CC2)Cc2cccs2)c1 | active: 14.7% |
| COc1ccc(CCNC(=O)C2CCN(Cc3nc(-c4ccc(Cl)cc4)oc3C)CC2)cc1OC | active: 6.4% |

Same assay, conditions: 10 µM; 20 h; run: primary screen (compounds selected for induction >=10%)

| Compound | Cell Painting induction [%] |
| --- | --- |
| COc1ccc(CCn2c(=O)[nH]c3cc(C(=O)N4CCN(c5ccccc5)CC4)ccc3c2=O)cc1OC | 16.2 |
| C=CCOc1cccc(C2c3c(oc4ccccc4c3=O)C(=O)N2c2ccccn2)c1 (stereo not given) | 43.4 |
| COc1ccc(N2C(=S)NC3c4cc(Cl)ccc4OC2(C)C3C(=O)N(C)C)cc1 (stereo not given) | 20.4 |
| Cc1nn(C(C)C(=O)NCCCN2CCCCC2C)c(=O)c2c1sc1ccccc12 (stereo not given) | 18.5 |
| CCOC(=O)C(C)Sc1nc(O)c2cnn(-c3ccc(F)cc3)c2n1 (stereo not given) | 13.1 |
| CCOc1cccc2cc(C(=O)NCc3ccc(F)cc3)c(=N)oc12 | 21.1 |
| COc1ccc(CNC(=O)c2cc3cc(OC)ccc3oc2=O)cc1 | 31.4 |
| O=C(Nc1ccc2nc3n(c(=O)c2c1)CCCCC3)C(=O)N1CCN(c2ccc(F)cc2)CC1 | 20.2 |
| Cc1nn2c(Nc3ccc(F)cc3)c3c(nc2c1-c1ccccc1)CCC3 | 20 |
| CCN(CC)c1ccc(NC(=O)CN2CCN(CC(=O)Nc3ccc(OC)cc3)CC2)cc1 | 35.8 |
| CCOc1cc2[nH]c(=S)n(Cc3ccc(C(=O)NCCOC)cc3)c(=O)c2cc1OCC | 25.9 |
| COc1ccc(-n2nc(C(=O)NCC(=O)N3CCN(c4ccccn4)CC3)c3ccccc3c2=O)cc1Cl | 21.4 |
| Cc1ccc(N2CCN(C(=O)C3CCN(S(=O)(=O)c4cccc5nsnc45)CC3)CC2C)cc1 (stereo not given) | 23.3 |
| COc1ccccc1-n1c(CNC(=O)c2ccco2)nnc1SCC(=O)Nc1nccs1 | 15.5 |
| COc1ccc(C(=O)NCC2(c3ccc(OC)c(OC)c3)CCCC2)c(OC)c1 | 13.8 |
| CCN(CCCNC(=O)CN1C(=O)COc2ccc(S(=O)(=O)N3CCC(C)CC3)cc21)Cc1ccccc1 | 37.3 |
| O=C(CN1C(=O)CSc2ccc(S(=O)(=O)N3CCCCCC3)cc21)NCCc1ccccc1 | 11.9 |
| COc1ccc(OC)c(CN2CCN(Cc3ccccc3C(F)(F)F)CC2)c1 | 18.3 |
| Cc1cc(C)cc(NC(=S)N(CCCN2CCN(C)CC2)Cc2cccs2)c1 | 21.4 |
| COc1ccc(CCNC(=O)C2CCN(Cc3nc(-c4ccc(Cl)cc4)oc3C)CC2)cc1OC | 43 |
